Test results from the supplement of paper PMC8728848.
Some of the results follow.

Key:
Experiment in all cases: glycan array binding signal (z-score within array); higher = stronger binding
Settings in all cases: glycan notation: IUPAC condensed, linker removed
[1] = molecular target: GlcNAc(a1-4)Gal(b1-3)[Fuc(a1-2)]Gal
Method in brief: (§1)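 Glycan array data were curated from 3228 arrays in the Consortium for Functional Glycomics database and kept only where the protein sequence was available. Glycan names were converted to IUPAC-condensed notation, and columns mapping to the same glycan were averaged. The binding signal is a within-array Z-score, averaged across arrays of the same protein sequence at different concentrations or buffers and across linkers. Negative Z-scores can be read as non-binding.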

[2] = molecular target: GlcNAc(b1-2)Man(a1-3)[GlcNAc(b1-2)Man(a1-6)]Man(b1-4)GlcNAc(b1-4)GlcNAc
Method in brief: as §1

[3] = molecular target: GlcNAc(b1-2)Man(a1-3)[GlcNAc(b1-2)Man(a1-6)]Man(b1-4)GlcNAc(b1-4)[Fuc(a1-6)]GlcNAc
Method in brief: as §1

[4] = molecular target: GlcNAc(b1-2)Man(a1-3)[GlcNAc(b1-2)Man(a1-6)][GlcNAc(b1-4)]Man(b1-4)GlcNAc(b1-4)GlcNAc
Method in brief: as §1

[5] = molecular target: GlcNAc(b1-2)Man(a1-3)[Man(a1-3)[Man(a1-6)]Man(a1-6)][GlcNAc(b1-4)]Man(b1-4)GlcNAc(b1-4)GlcNAc
Method in brief: as §1

[6] = molecular target: GlcNAc(b1-2)[GlcNAc(b1-4)]Man(a1-3)[GlcNAc(b1-2)Man(a1-6)][GlcNAc(b1-4)]Man(b1-4)GlcNAc(b1-4)GlcNAc
Method in brief: as §1

[7] = molecular target: GlcNAc(b1-2)[GlcNAc(b1-4)]Man(a1-3)[GlcNAc(b1-2)[GlcNAc(b1-4)][GlcNAc(b1-6)]Man(a1-6)][GlcNAc(b1-4)]Man(b1-4)GlcNAc(b1-4)GlcNAc
Method in brief: as §1

[8] = molecular target: GlcNAc(b1-2)[GlcNAc(b1-4)]Man(a1-3)[GlcNAc(b1-2)[GlcNAc(b1-6)]Man(a1-6)]Man(b1-4)GlcNAc(b1-4)GlcNAc
Method in brief: as §1

[9] = molecular target: GlcNAc(b1-3)Fuc
Method in brief: as §1

[10] = molecular target: GlcNAc(b1-3)Gal(b1-4)Glc
Method in brief: as §1

[11] = molecular target: GlcNAc(b1-3)[GlcNAc(b1-6)]Gal(b1-4)GlcNAc(b1-3)[GlcNAc(b1-6)]Gal(b1-4)GlcNAc(b1-3)Gal(b1-4)Glc
Method in brief: as §1

[12] = molecular target: GlcNAc(b1-4)GlcNAc
Method in brief: as §1

[13] = molecular target: GlcNAc(b1-4)GlcNAc(b1-4)GlcNAc
Method in brief: as §1

[14] = molecular target: HexA(a1-3)GalNAc4S(b1-4)GlcA(b1-3)GalNAc4S
Method in brief: as §1

[15] = molecular target: HexA(a1-3)GalNAc4S(b1-4)GlcA(b1-3)GalNAc4S(b1-4)GlcA(b1-3)GalNAc4S(b1-4)GlcA(b1-3)GalNAc4S(b1-4)GlcA(b1-3)GalNAc4S(b1-4)GlcA(b1-3)GalNAc4S(b1-4)GlcA(b1-3)GalNAc4S
Method in brief: as §1

[16] = molecular target: HexA(a1-3)GalNAc4S(b1-4)IdoA(a1-3)GalNAc4S
Method in brief: as §1

[17] = molecular target: HexA(a1-3)GalNAc4S(b1-4)IdoA(a1-3)GalNAc4S(b1-4)IdoA(a1-3)GalNAc4S(b1-4)IdoA(a1-3)GalNAc4S(b1-4)IdoA(a1-3)GalNAc4S(b1-4)IdoA(a1-3)GalNAc4S(b1-4)IdoA(a1-3)GalNAc4S
Method in brief: as §1

[18] = molecular target: HexA(a1-3)GalNAc6S(b1-4)GlcA(b1-3)GalNAc6S
Method in brief: as §1

[19] = molecular target: HexA(a1-3)GalNAc6S(b1-4)GlcA(b1-3)GalNAc6S(b1-4)GlcA(b1-3)GalNAc6S(b1-4)GlcA(b1-3)GalNAc6S(b1-4)GlcA(b1-3)GalNAc6S(b1-4)GlcA(b1-3)GalNAc6S(b1-4)GlcA(b1-3)GalNAc6S
Method in brief: as §1

[20] = molecular target: HexA(a1-4)GlcNAc(a1-4)HexA(a1-4)GlcNAc(a1-4)HexA(a1-4)GlcNAc(a1-4)HexA(a1-4)Man
Method in brief: as §1

[21] = molecular target: HexA2S(a1-4)GlcNS6S
Method in brief: as §1

[22] = molecular target: Kdn(a2-3)[GalNAc(b1-4)]Gal(b1-3)GlcNAc
Method in brief: as §1

[23] = molecular target: Man(a1-2)Man
Method in brief: as §1

[24] = molecular target: Man(a1-2)Man(a1-2)Man(a1-3)[Man(a1-2)Man(a1-3)[Man(a1-2)Man(a1-6)]Man(a1-6)]Man(b1-4)GlcNAc(b1-4)GlcNAc
Method in brief: as §1

[25] = molecular target: Man(a1-2)Man(a1-2)Man(a1-3)[Man(a1-2)Man(a1-6)[Man(a1-3)]Man(a1-6)]Man(b1-4)GlcNAc(b1-4)GlcNAc
Method in brief: as §1

[26] = molecular target: Man(a1-2)Man(a1-2)Man(a1-3)[Man(a1-3)[Man(a1-6)]Man(a1-6)]Man(b1-4)GlcNAc(b1-4)GlcNAc
Method in brief: as §1

[27] = molecular target: Man(a1-2)Man(a1-3)[Man(a1-2)Man(a1-6)[Man(a1-3)]Man(a1-6)]Man(b1-4)GlcNAc(b1-4)GlcNAc
Method in brief: as §1

[28] = molecular target: Man(a1-2)Man(a1-3)[Man(a1-3)[Man(a1-6)]Man(a1-6)]Man(b1-4)GlcNAc(b1-4)GlcNAc
Method in brief: as §1

[29] = molecular target: Man(a1-3)Man
Method in brief: as §1

[30] = molecular target: Man(a1-3)Man(a1-6)[Man(a1-3)]Man(b1-4)GlcNAc(b1-4)GlcNAc
Method in brief: as §1

[31] = molecular target: Man(a1-3)Man(b1-4)GlcNAc
Method in brief: as §1

[32] = molecular target: Man(a1-3)[Man(a1-6)]Man
Method in brief: as §1

[33] = molecular target: Man(a1-3)[Man(a1-6)]Man(a1-6)Man(b1-4)GlcNAc(b1-4)GlcNAc
Method in brief: as §1

[34] = molecular target: Man(a1-3)[Man(a1-6)]Man(a1-6)[Man(a1-3)]Man
Method in brief: as §1

[35] = molecular target: Man(a1-3)[Man(a1-6)]Man(a1-6)[Man(a1-3)]Man(b1-4)GlcNAc(b1-4)GlcNAc
Method in brief: as §1

[36] = molecular target: Man(a1-3)[Man(a1-6)]Man(b1-4)GlcNAc(b1-4)GlcNAc
Method in brief: as §1

[37] = molecular target: Man(a1-3)[Man(a1-6)]Man(b1-4)GlcNAc(b1-4)[Fuc(a1-6)]GlcNAc
Method in brief: as §1

[38] = molecular target: Man(a1-6)Man
Method in brief: as §1

B1: Dectin-1 (Mus musculus), Q6QLQ4 (protein)
chain: GHNSGRNPEEKDNFLSRNKENHKPTESSLDEKVAPSKASQTTGGFSQPCLPNWIMHGKSCYLFSFSGNSWYGSKRHCSQLGAHLLKIDNSKEFEFIESQTSSHRINAFWIGLSRNQSEGPWFWEDGSAFFPNSFQVRNTAPQESLLHNCVWIHGSEVYNQICNTSSYSICEKEL
glycan array binding signal (z-score) [1]: -0.091
glycan array binding signal (z-score) [2]: -0.091
glycan array binding signal (z-score) [3]: -0.05
glycan array binding signal (z-score) [4]: -0.091
glycan array binding signal (z-score) [5]: -0.091
glycan array binding signal (z-score) [6]: -0.07
glycan array binding signal (z-score) [7]: -0.091
glycan array binding signal (z-score) [8]: -0.076
glycan array binding signal (z-score) [9]: -0.091
glycan array binding signal (z-score) [10]: -0.029
glycan array binding signal (z-score) [11]: -0.063
glycan array binding signal (z-score) [12]: -0.037
glycan array binding signal (z-score) [13]: -0.059
glycan array binding signal (z-score) [14]: -0.072
glycan array binding signal (z-score) [15]: -0.042
glycan array binding signal (z-score) [16]: -0.044
glycan array binding signal (z-score) [17]: -0.001
glycan array binding signal (z-score) [18]: -0.079
glycan array binding signal (z-score) [19]: 0.018
glycan array binding signal (z-score) [20]: -0.091
glycan array binding signal (z-score) [21]: -0.091
glycan array binding signal (z-score) [22]: -0.062
glycan array binding signal (z-score) [23]: -0.052
glycan array binding signal (z-score) [24]: -0.04
glycan array binding signal (z-score) [25]: -0.004
glycan array binding signal (z-score) [26]: -0.091
glycan array binding signal (z-score) [27]: -0.091
glycan array binding signal (z-score) [28]: -0.074
glycan array binding signal (z-score) [29]: -0.021
glycan array binding signal (z-score) [30]: -0.06
glycan array binding signal (z-score) [31]: -0.034
glycan array binding signal (z-score) [32]: -0.032
glycan array binding signal (z-score) [33]: -0.091
glycan array binding signal (z-score) [34]: -0.006
glycan array binding signal (z-score) [35]: -0.06
glycan array binding signal (z-score) [36]: -0.091
glycan array binding signal (z-score) [37]: -0.044
glycan array binding signal (z-score) [38]: 0.016
